In the supplement of paper PMC3334620:
Over roughly 33,000 sequences, “E-score (-0.5 to 0.5)” has its median near -0.012; the highest 2% begin near 0.29. The list shows a part of the results.

These sequences were tested against T1, Ybr033w (UniProt P38073) (assay: PBM E-score (8-mer binding enrichment) (E-score (-0.5 to 0.5)); higher = stronger / more preferred TF binding; most listed sequences are background and not binding sites). Settings: protein concentration: 200 nM; construct: GST-full length.
T1 sequence: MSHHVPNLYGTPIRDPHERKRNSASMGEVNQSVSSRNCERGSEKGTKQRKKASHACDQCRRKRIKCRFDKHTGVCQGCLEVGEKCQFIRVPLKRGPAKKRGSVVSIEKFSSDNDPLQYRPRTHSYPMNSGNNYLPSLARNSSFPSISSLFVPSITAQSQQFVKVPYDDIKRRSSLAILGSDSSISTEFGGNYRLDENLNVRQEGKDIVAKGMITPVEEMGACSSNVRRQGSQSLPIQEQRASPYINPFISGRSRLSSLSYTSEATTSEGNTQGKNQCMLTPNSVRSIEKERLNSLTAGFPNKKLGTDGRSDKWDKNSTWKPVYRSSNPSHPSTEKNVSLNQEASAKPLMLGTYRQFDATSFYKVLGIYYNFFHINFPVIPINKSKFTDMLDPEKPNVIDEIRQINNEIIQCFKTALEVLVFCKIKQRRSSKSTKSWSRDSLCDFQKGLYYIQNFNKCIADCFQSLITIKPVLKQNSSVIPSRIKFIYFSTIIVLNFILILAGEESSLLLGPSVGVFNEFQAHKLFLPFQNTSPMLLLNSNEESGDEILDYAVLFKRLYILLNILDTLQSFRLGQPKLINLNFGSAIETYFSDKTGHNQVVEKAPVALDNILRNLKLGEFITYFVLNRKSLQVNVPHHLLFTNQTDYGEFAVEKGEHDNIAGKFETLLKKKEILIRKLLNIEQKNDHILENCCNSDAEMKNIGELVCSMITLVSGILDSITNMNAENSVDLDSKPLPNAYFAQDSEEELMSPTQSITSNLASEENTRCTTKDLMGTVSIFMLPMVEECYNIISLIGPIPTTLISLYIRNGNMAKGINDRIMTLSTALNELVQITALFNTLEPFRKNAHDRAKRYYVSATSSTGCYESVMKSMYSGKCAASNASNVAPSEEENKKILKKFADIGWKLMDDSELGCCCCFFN
Summary of the method: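 Yeast transcription factors carrying a GST tag, as full-length proteins or DNA-binding domains, were produced by PURExpress in vitro transcription/translation. About 100-200 nM protein was applied to universal all-10-mer Agilent arrays, double-stranded by primer extension on fresh or once-stripped slides. Bound protein was detected with fluorescent anti-GST, and scans were normalised with masliner. The Universal PBM Analysis Suite gave each ungapped eight-base word, pooled with its reverse complement, an E-score, a modified Wilcoxon-Mann-Whitney statistic.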
For AGGCTGCA, the “PBM E-score” value was -0.0505. In the case of ACTGAACT, the “PBM E-score” value was 0.076. GACCTATA was tested, and the “PBM E-score” value was 0.189. In the case of AGGAATAT, the “PBM E-score” value was 0.353. ATTAGGCA was tested, and the “PBM E-score” value was -0.0629. With CGAGACGA the “PBM E-score” value was -0.124. GGCGCCCC was tested, and the “PBM E-score” value was -0.351. AAACCGGC was tested, and the “PBM E-score” value was 0.00941. In the case of CCTATCAC, the “PBM E-score” value was -0.0714. With GCTTGCAC the “PBM E-score” value was -0.119. In the case of TACAGGTA, the “PBM E-score” value was 0.115. For CTGTCTCC, the “PBM E-score” value was 0.00722. In the case of ACGCTCCT, the “PBM E-score” value was 0.0451. With AAATCACT the “PBM E-score” value was 0.243. In the case of AGCGCATC, the “PBM E-score” value was 0.0587. For TGCTGAAA, the “PBM E-score” value was 0.12. ATGCCATG was tested, and the “PBM E-score” value was -0.0545. For CATCGCGG, the “PBM E-score” value was -0.106. For AACATCTC, the “PBM E-score” value was 0.134. For GTAACCTA, the “PBM E-score” value was 0.171. For GCTCCAAC, the “PBM E-score” value was 0.0804. For ACGATCAG, the “PBM E-score” value was 0.0882. In the case of TGAAAGCA, the “PBM E-score” value was 0.148. In the case of CTGAGCCA, the “PBM E-score” value was -0.228. For AACGAAAC, the “PBM E-score” value was 0.0982. In the case of GGGCCCTA, the “PBM E-score” value was -0.344. GGCGTCAC was tested, and the “PBM E-score” value was -0.1. With AAACTTTG the “PBM E-score” value was 0.204. For ATGTTAAG, the “PBM E-score” value was 0.0474. In the case of GGTCTGGA, the “PBM E-score” value was -0.0823. With GAAATCCC the “PBM E-score” value was -0.0561. In the case of ACGAGCTA, the “PBM E-score” value was -0.105. CCTAAAAC was tested, and the “PBM E-score” value was -0.0442. For AGGATTAC, the “PBM E-score” value was 0.106. ATCGCCAC was tested, and the “PBM E-score” value was -0.145. With CTTCCACA the “PBM E-score” value was 0.0508. With TACTCATA the “PBM E-score” value was 0.0798. In the case of CAGGCGCC, the “PBM E-score” value was -0.286. For AAGCGCAC, the “PBM E-score” value was -0.0871. GCCATAAC was tested, and the “PBM E-score” value was -0.207. With CTTGATAC the “PBM E-score” value was 0.0764. GGACACCA was tested, and the “PBM E-score” value was -0.0887. With GAGCACTC the “PBM E-score” value was -0.0143. GCTTTACA was tested, and the “PBM E-score” value was -0.034. With ACATAGGG the “PBM E-score” value was 0.00674. GATAAACA was tested, and the “PBM E-score” value was 0.298. With CGGATCAG the “PBM E-score” value was -0.11. In the case of CAACATCG, the “PBM E-score” value was 0.0554. For ACGGGTAT, the “PBM E-score” value was 0.0865. For GGCAACTA, the “PBM E-score” value was -0.00591. GCAAACAA was tested, and the “PBM E-score” value was 0.0425. In the case of AGTCAAAC, the “PBM E-score” value was -0.00652. In the case of CAACGTTG, the “PBM E-score” value was 0.156. For GGCGTCCA, the “PBM E-score” value was -0.229. For AATTCGGA, the “PBM E-score” value was 0.195. With CTCGTTAA the “PBM E-score” value was 0.00748. In the case of ACGTTTAA, the “PBM E-score” value was 0.218. In the case of ATCTTTGC, the “PBM E-score” value was 0.138. AACGAGTT was tested, and the “PBM E-score” value was 0.0306. With CAACTAAA the “PBM E-score” value was 0.24. GCACTCTA was tested, and the “PBM E-score” value was 0.0325. With ATGTATGA the “PBM E-score” value was 0.176. With GCCATCAC the “PBM E-score” value was -0.14. With CCCATTGA the “PBM E-score” value was 0.0752. CGAGGCTA was tested, and the “PBM E-score” value was -0.0892. For CAAGTAAC, the “PBM E-score” value was 0.0748. With CCCAGAAG the “PBM E-score” value was -0.0674. In the case of AGCCTTGG, the “PBM E-score” value was -0.107. CAACCAGA was tested, and the “PBM E-score” value was -0.0458. With AACTAGTA the “PBM E-score” value was 0.0764. With AGAATACT the “PBM E-score” value was 0.179. In the case of AAGTGTCC, the “PBM E-score” value was 0.0183. GACCGTCA was tested, and the “PBM E-score” value was -0.23. In the case of GCATGACC, the “PBM E-score” value was -0.263. AGTACCTA was tested, and the “PBM E-score” value was 0.164. For TATGAATA, the “PBM E-score” value was 0.233. With CACTTTCA the “PBM E-score” value was 0.0427. GTAAACAC was tested, and the “PBM E-score” value was 0.0587. For AGTTAACA, the “PBM E-score” value was 0.238. For CCATACCG, the “PBM E-score” value was 0.00217. In the case of ATAGGGCA, the “PBM E-score” value was -0.00562. In the case of AACAGCAT, the “PBM E-score” value was 0.111. With GCAACTTA the “PBM E-score” value was 0.156. CCCTCGAA was tested, and the “PBM E-score” value was -0.182. For CATAGCCG, the “PBM E-score” value was -0.0951. In the case of ACCACTAC, the “PBM E-score” value was -0.0385.
